Experimental data reported in PubChem BioAssay AID588855 (National Center for Advancing Translational Sciences (NCATS), 2011).
Several values for one entry are separate records, joined by “and”; a condition that tells them apart may be missing. Equal values may be shown once. Out of some 410,000 compounds screened, about 5,000 (1.2%) were called active. The inconclusive results got no clear call from the source; some entries with a clear call stand among them for comparison. Calls follow the shape of the dose curve; as a rule, active = well fitted inhibition curve with a large enough effect; inconclusive = small, poorly fitted or top-dose-only effect; inactive = no such curve, though single readings can be large or run the other way. Potencies of inconclusive entries are doubtful fits and often do not repeat.

Test: qHTS for Inhibitors of TGF-b; also: nearly all actives have a fitted effect of over 65% in size
Settings: HepG2 CAGA-GFP TGF-b/SMAD3 reporter, GFP fluorescence, 18 h, TGF-beta stimulated, 500 pg/mL final; series mostly up to 46.1 µM
In short: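 First, reporter cells (HEPG2 CAGA-GFP) rested 2 h at 37 degrees C. Next, compounds were pinned in and TGF-beta added to 500 pg/mL final. After 18 h, GFP was imaged per cell and summed per well.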
Potency is read from the fitted curve at half-maximal effect; tags tell the direction and shape of the fitted curve.

| SMILES | Potency |
| --- | --- |
| CCN(C(=O)Cn1nc(Cc2cccnc2)c2ccccc2c1=O)c1cc(C)ccc1C | inconclusive: 35.5 µM [inhibitor, single point] |
| CCc1ccccc1NC(=S)N1CCN(c2ccccc2F)CC1 | inconclusive: 12.6 µM [inhibitor, partial curve] |
| O=C(Nc1ccc(Cl)cn1)c1ccc(Oc2ccccc2)cc1 | inactive |
| CN(C)C(=O)CCc1ccc2c3c([nH]c2c1)[C@]1(C)[C@@H](C(=O)N2CCCCC2)C[C@H](CC(=O)NC(C)(C)C)C(=O)N1CC3 | inactive |
| COc1ccc(N2CCN(c3cc(C)nc4ccc(OC)cc34)CC2)cc1 | inconclusive: 35.5 µM [inhibitor, single point] |
| COc1cc(/C=N/Nc2ccccc2[N+](=O)[O-])cc(OC)c1O | inactive |
| CCOc1ccccc1CNC(=O)c1cccc(NC(=O)c2nsc3ccccc23)c1 | inconclusive: 35.5 µM [inhibitor, single point] |
| C=CCNc1ccccc1S(=O)(=O)NCc1ccccc1 | inconclusive: 28.2 µM [inhibitor, single point] |
| C=CCc1c(C)nc2c(OC)cccc2c1Cl | inconclusive: 5.01 µM [inhibitor, partial curve] |
| Cc1ccc(C(CC(=O)Nc2ccc(C)cc2C)N2Cc3ccccc3C2=O)cc1 (stereo not given) | inconclusive: 31.6 µM [inhibitor, single point] |
| COC(=O)c1c[nH]c2c1-c1cc(C(=O)OCc3ccccc3)n(S(=O)(=O)c3ccc(C)cc3)c1C(=O)C2=O | active: 0.447 µM |
| Cc1cccc(C(=O)NCC(=O)Nc2ccc(S(=O)(=O)Nc3nc(C)cc(C)n3)cc2)c1 | inconclusive: 0.708 µM [inhibitor, full curve] |
| C=CCN(CC=C)CC(O)CN(c1cc([N+](=O)[O-])ccc1OC)S(=O)(=O)c1ccccc1 (stereo not given) | inactive |
| Cn1cc(/C=N/n2cnc3sc4c(c3c2=O)CCCC4)c2ccccc21 | inactive |
| Nc1nc(N=Nc2ccc(O)cc2)cc(=O)[nH]1 | inactive |
| O=C1c2ccccc2C(Nc2ccc3c(c2)OCCO3)N1c1ccc(Cl)cn1 (stereo not given) | inactive |
| CCCc1oc2ccc(NS(=O)(=O)c3ccc(OC)cc3)cc2c1C(=O)OCC | active: 10 µM |
| COc1ccc(N2CCN(S(=O)(=O)CCNC(=O)Cc3ccc(-c4ccccc4)cc3)CC2)cc1 | inactive |
| Cc1ccc(-c2[nH]c3ccccc3c2C(C[N+](=O)[O-])c2ccco2)cc1 (stereo not given) | inconclusive: 12.6 µM [inhibitor, partial curve, poor fit] |
| N#C/C(=C\c1cccc(OCC(=O)O)c1)c1nc2ccccc2[nH]1 | inactive |
| CC1CC(C)CN(S(=O)(=O)c2ccc(NC(=O)CN3CCCCCC3)cc2)C1 (stereo not given) | inconclusive: 5.01 µM [inhibitor, single point] |
| CCn1c2ccccc2c2cc(/C=N/n3cn[nH]c3=S)ccc21 | inconclusive: 28.2 µM [inhibitor, single point] |

| SMILES | Potency |
| --- | --- |
| Clc1ccc(-c2n[nH]c3c2CCCC3)cc1 | inconclusive: 17.8 µM [inhibitor, partial curve, poor fit] |
| CCCC(CC)Sc1nc2c([nH]1)c(=S)n(C)c(=O)n2C (stereo not given) | active: 7.94 µM |
| CCOC(=O)c1cccc(NC(=O)C2CCN(c3nnc(C)c4c(C)n(-c5ccccc5)nc34)CC2)c1 | inconclusive: 0.112 µM [inhibitor, full curve, poor fit] |
| COc1ccc(-c2ccc(-c3nnc(-c4cc(OC)ccc4OC)o3)cc2)cc1 | inconclusive: 3.55 µM [inhibitor, single point] |
| O=C(Nc1nccs1)c1ccc(N2C(=O)C3CCCCC3C2=O)cc1 (stereo not given) | inconclusive: 10 µM [inhibitor, partial curve] |
| CCOc1ccc2nc(NC(=O)CSC3=NCCS3)sc2c1 | inactive |
| Cc1cc(C)cc(NC(=O)Cn2nnc(C(=O)NCc3ccco3)c2N)c1 | inconclusive: 35.5 µM [inhibitor, single point] |
| O=C(Nc1ccc(Oc2ccccc2)nc1)C1CCCCN1Cc1cccc(OCCO)c1 (stereo not given) | inconclusive: 10 µM [inhibitor, partial curve, poor fit] |
| Cc1ccc(Nc2nnc(SCn3nnc4ccccc4c3=O)s2)cc1 | inconclusive: 35.5 µM [inhibitor, single point] |
| COc1ccc(CNCC(O)(c2ccccc2)c2ccc(F)cc2)cc1 (stereo not given) | inconclusive: 17.8 µM [inhibitor, single point] |
| COc1ccc(N2CCN(C(CNC(=O)C(=O)NCCCn3ccnc3)c3cccnc3)CC2)cc1 (stereo not given) | inconclusive: 22.4 µM [inhibitor, single point] |
| O=C(CCCCCNC(=O)N1CCn2c1nc1ccccc12)N[C@@H](C(=O)O)c1ccccc1 | inactive |
| Cc1c(C(=O)NCCSCc2c(F)cccc2Cl)cnn1-c1ccc(Cl)cc1 | inconclusive: 35.5 µM [inhibitor, single point] |
| Cc1ccc(OCCC(=O)Nc2ccc(F)c(Cl)c2)cc1 | inactive |
| COC(=O)c1ccc(C(C(=O)NCc2ccccc2)N(Cc2cccs2)C(=O)c2cnccn2)cc1 (stereo not given) | inactive |
| CN(C(=S)NCCN1CCOCC1)C(c1ccccc1)c1ccccc1 | inconclusive: 6.31 µM [inhibitor, single point] |
| Cc1cccc(NC(=O)CNC(=O)Cn2ncc(Cl)c(Cl)c2=O)c1C | inconclusive: 35.5 µM [inhibitor, single point] |
| N/C(=N\OC(=O)C(c1ccccc1)c1ccccc1)c1ccccn1 | inactive |
| COc1ccc2cc3c(N)nn(C(=O)C4CCC(C(C)(C)C)CC4)c3nc2c1 (stereo not given) | inconclusive: 0.794 µM [inhibitor, partial curve, poor fit] |
| O=C(Nc1cccc(-c2csc(Nc3ccccc3)n2)c1)c1cc([N+](=O)[O-])cc(C(F)(F)F)c1 | inconclusive: 12.6 µM [inhibitor, partial curve, poor fit] |
| C=CCNC(=S)/N=c1/ccccn1Cc1ccccc1 | inconclusive: 35.5 µM [inhibitor, single point] |
| Cc1ccc(Cl)cc1N1CCN(C(=O)Cn2nc(C)n3c(cc4sccc43)c2=O)CC1 | inconclusive: 5.62 µM [inhibitor, single point] |

| SMILES | Potency |
| --- | --- |
| Cc1cc(C)cc(C(=O)Nc2c3c(nn2-c2ccccc2C)CS(=O)(=O)C3)c1 | inactive |
| COc1cc(-c2noc(C)c2-c2ccc(N(C)C)nc2)cc(OC)c1OC | inconclusive: 3.55 µM [inhibitor, partial curve] and inconclusive: 316 nM [inhibitor, full curve, poor fit] |
| COc1cccc(CNc2nc(NCc3cccs3)nc3ccsc23)c1 | inconclusive: 35.5 µM [inhibitor, single point] |
| CC(=O)Oc1ccccc1C(=O)NC(C)CCc1ccccc1 (stereo not given) | inconclusive: 22.4 µM [inhibitor, single point] |
| CCCN(C(=O)CCn1cnc2onc(-c3ccc(F)cc3)c2c1=O)c1ccccc1C | inconclusive: 0.708 µM [inhibitor, full curve, poor fit] |
| O=C(Nc1ccc(N2CCOCC2)cc1)c1ccc(Cl)c(S(=O)(=O)N2CCCC2)c1 | inconclusive: 7.08 µM [inhibitor, partial curve, poor fit] |
| O=C1C(Cc2ccccc2)Nc2ncnc(N3CCCCC3)c2N1Cc1ccc(Cl)cc1 (stereo not given) | inconclusive: 35.5 µM [inhibitor, single point] |
| COCc1cc(=O)[nH]c(Nc2nc3ccc(C)cc3o2)n1 | inconclusive: 35.5 µM [inhibitor, single point] |
| CCCCSCc1nc2nc(Cl)c(Cl)nc2[nH]1 | inconclusive: 22.4 µM [inhibitor, single point] |
| O=C1c2cc(Br)ccc2N(Cc2ccc(Br)cc2)S(=O)(=O)C1c1cc(Cl)c(Cl)cc1[N+](=O)[O-] (stereo not given) | inconclusive: 8.91 µM [inhibitor, partial curve, poor fit] |
| COc1cccc(Cn2c(NCC(C)C)nc3c2c(=O)n(C)c(=O)n3C)c1 | inactive |
| O=S(=O)(Nc1cccc(-c2ccc(N3CCOCC3)nn2)c1)c1ccc(Cl)c(Cl)c1 | inconclusive: 22.4 µM [inhibitor, single point] |
| Cc1cccc(C)c1NC(=O)c1sc(Cl)nc1C | inconclusive: 17.8 µM [inhibitor, single point] |
| CNC[C@H](CC1CCCCC1)NC[C@H](NCCC1CCCC1)[C@H](C)O | inconclusive: 22.4 µM [inhibitor, single point] |
| CCc1nnc(NC(=O)c2nc(S(=O)(=O)Cc3ccccc3)ncc2Cl)s1 | inconclusive: 35.5 µM [inhibitor, single point] |
| CC(Sc1nncn1C)C(=O)NCc1ccc2c(c1)OCO2 (stereo not given) | inconclusive: 2.24 µM [inhibitor, partial curve, poor fit] |
| COc1cccc(NC(=O)CSc2nc3c(sc4ccccc43)c(=O)n2CCN(C)C)c1 | inconclusive: 25.1 µM [inhibitor, single point] |
| COc1ccc(Cn2c(SCC(=O)NCc3ccccc3)nc3ccccc32)cc1 | inconclusive: 35.5 µM [inhibitor, partial curve, poor fit] |
| CCCCCCCOC(=O)C[N+](C)(C)CCOC1CC2CCC1(C)C2(C)C (stereo not given) | inconclusive: 31.6 µM [inhibitor, single point] |
| C=CCn1c(C)cc(C(=O)CSc2nnc(NCc3ccccc3)s2)c1C | inconclusive: 8.91 µM [inhibitor, partial curve, poor fit] |
| Cc1ccc(C(=O)NCC(=O)OCc2cc(=O)n3nc(C4CCCCC4)sc3n2)cc1 | inconclusive: 0.316 µM [inhibitor, full curve, poor fit] |
